Laboratory results reported in the supplement of paper PMC11417369.
Some of the results follow.

test system: PfAP2-HC AP2 domain (GST-tagged); assay: gcPBM binding intensity (ln(normalized median fluorescence intensity)); higher = stronger DNA binding
Method in brief: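 For binding intensity, the highest Masliner-normalised natural-log median intensity across replicate spots of either probe orientation was taken. Protein bound to the array was stained with Alexa488 anti-GST antibody and scanned at 488 nm. The protein, GST-tagged P. falciparum DNA-binding domains from E. coli at about 25 μg on average, had been applied for 1 h to an Agilent 4 × 180k array of primer-extended double-stranded 36-bp intergenic genomic probes and negative controls.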

Row | Sequence | gcPBM binding intensity (ln)
1 | ATAAATATATATATCACACATATATAATTATATATA [CACACA_site4787] | 9.61
2 | TACATACATATATTATGTACATATTTTATTTTTATT [XGTACX_site1642] | 9.85
3 | TTTCTTTTAATAATTAAATATTTATTTATGATTATA [TGCATGCA_negctrl_site30] | 9.23
4 | AAAAAAAATTCGTGTGTGCGCATATATAATATATAA | 10.4
5 | AAGCATACATCAAGCACACACACACCCACAGAGACA [CACACA_site4362] | 10.5
6 | TCTATACCAGAAAAGGGTACATATTTTGGATTGAAC [XGTACX_site8402] | 9.53
7 | ATTATGCACCAACACACACACACACTCCTAAAAAAT [CACACA_site8822] | 11
8 | ATTGCAAGTTACTTGTGTACTTATAAGATTAAAAGA [XGTACX_site7696] | 9.6
9 | TAATAATACCCAAGCACACACACACCCATATATATA [CACACA_site4831] | 10.6
10 | AATATAAATAAAAACACACACAATGGTACATATATA [CACACA_site3671] | 10.2
11 | TACTGTGATAGCACCACACACGCAAAAGTGGGTATA [CACACA_site4749] | 9.88
12 | TTTAAATCGTTAAAAACACACAAAAAAAATCAATTA [CACACA_site2519] | 9.59
13 | TCTTTTTCTTCTTATGTGCACATCAATTATGCTTCT | 10.4
14 | GATAATTACGGACACACACACACACGCACAACTAAA [CACACA_site7254] | 10.7
15 | ACTATCATTCATAGGTGTACCTAAATATATATATAT [XGTACX_site1696] | 9.65
16 | CGAATATATTCTAGACGTACTATATAATATATATAT [XGTACX_site4953] | 9.49
17 | TTATTTCGAAGAAAATGTACATATATAAATATATAC [XGTACX_site3308] | 9.41
18 | ATAATATTTTTTAATTGTACGTTCCATTTTTTTAAA [XGTACX_site1227] | 9.61
19 | ATAATAAAAATATATACATGCATTATTATATATATA [TGCATGCA_site799] | 9.58
20 | CAACAATTTCGTCATACACACATTCAGAATATAGAT [CACACA_site7166] | 9.88
21 | ACCTGAAGAGTCAAACGTACAAATATTATAAAATGA [XGTACX_site3188] | 9.52
22 | TTAATACATTAAATATGTACTTATATATCTCAACTA [XGTACX_site3997] | 9.61

Row | Sequence | gcPBM binding intensity (ln)
23 | GTTATATTTTTTTTTTGTACATAATATTGTATTGAC [XGTACX_site6338] | 9.82
24 | AGTAGCATATTCTATTGTACATATATATATATATAT [XGTACX_site2980] | 9.79
25 | ATTAAAAACGGGTGTACACATATATAAATATATATA [CACACA_site4539] | 9.96
26 | ATATGTATATATGTATGTACGTACAAATTGTTGTAA [XGTACX_site8832] | 10
27 | TACAAAATAACTAGCACACATATGTATAAACCTATA [CACACA_site3718] | 9.9
28 | TGTATAAAGATATATACACACATATTTATTTATATA [CACACA_site6493] | 9.72
29 | TATATACAAAAATGCACACGAAAAGTAATATATATA [CACACA_site4173] | 9.96
30 | TATATAAAAATCAATTGTACTTTTTTTTTTTTTTTT [XGTACX_site7327] | 9.28
31 | ATATATAAAATTATATGTACATATATAATATATATA [XGTACX_site529] | 9.61
32 | TATATATATATGTGCACACATATATAATATGTATAA [CACACA_site715] | 10.2
33 | AAATAACACATATATACACACATATAACTATAATAT [CACACA_site7298] | 10.1
34 | TAGAACAAATAAAACACACACATATATATATATATG [CACACA_site2768] | 10.5
35 | TCATCCGTTTTAAGAAGTACATATTTGAACATATAA [XGTACX_site8040] | 9.25
36 | CATAGGATTATACTTTTGGAATATTATTAAATATGT [XGTACX_negctrl_site75] | 9.49
37 | TTTATTTTTTAATGTTGTACAATGTTGTTTAATCAA [XGTACX_site6489] | 9.65
38 | TTTTTTTCTTTTCAAACACACAATTGGTATATATTA [CACACA_site3320] | 9.81
39 | ACATGTCAAACATTTGCACACAAAAAAATAAAAATT [CACACA_site691] | 9.93
40 | AAAAAAAAAAAAAACACACACACAATAGTATATAAA [CACACA_site957] | 10.3
41 | TTGTTACTGTTTTGGTGTACAAAAAAAAAAAATATA [XGTACX_site5762] | 9.61
42 | TACTTACTTACTTACTCACACACATATACAAAGAAA [CACACA_site3348] | 10.1
43 | AATACAGATAATACAACACACAAGTAATATAAACCT [CACACA_site5900] | 10.2
44 | TATATATATTTTTATGCACACACAAAGAAAATTTTC [CACACA_site8931] | 9.83
